Consider 85 compounds from ChEMBL document CHEMBL4888484, “Replenishing the malaria drug discovery pipeline: Screening and hit evaluation of the MMV Hit Generation Library 1 (HGL1) against asexual blood stage Plasmodium falciparum ,using a nano luciferase reporter read-out” (2022).

For orientation: % Inhibition means the drop in the measured response relative to a control, in per cent.

The whole screen tested about 150,000 compounds, of which about 540 (0.36%) showed an effect of 50% or more. This is one part of the list.

This test relates to Plasmodium falciparum. Kind of test: Primary screen in NF54 nanoGlo assay, in single point, at 2uM, 72h; a lower Z score goes with more inhibition. The note with it: timepoint 72 hour. The test is classed as functional, Erythrocyte.
Consider `Clc1ccc2c(c1)N(CCn1cncn1)CCCC2`, for which the “% Inhibition” value is -9% and the Z score is reported as 1.37.
As to `Cc1ccc(C(=O)NCCc2noc(C(C)C)n2)c(O)c1`, the “% Inhibition” value is on record as -8% and the Z score came out at 1.58.
On the same counts, the results for `CC(=O)N1CCC[C@@](O)(C(=O)N2CCc3cc(Cl)cc(Cl)c3C2)C1` are -2% and 0.44.
As to `COc1ncccc1C(=O)N1CC[C@@H]2OCc3cccc(c3)Oc3ccc(cc3)CCC(=O)N(CCCO)CC(=O)N[C@H]2C1`, the “% Inhibition” value was -5% and the Z score turned out to be 0.89.
On the same counts, the results for `Cc1cc(C)cc(OCc2nc(CN(C(=O)c3ccco3)C(C)C)cs2)c1` are 2% and -0.23.
The like results for `CCN(CC)C(=O)[C@@H]1CCCN1Cc1cn(C)nc1-c1cccs1` were, in that order, -6% and 0.88.
With `O=C(C[C@@H]1NC(=O)N(CCc2c[nH]c3ccccc23)C1=O)NCc1ccccn1`, the “% Inhibition” value stood at 4% and the Z score is listed as -0.65.
As for `CC(C)(O)Cn1nc(CCCc2ccccc2)oc1=S`, the “% Inhibition” value is recorded as -3% and the Z score was 0.43.
On the same counts, the results for `N#Cc1ccc(C(=O)NCc2cnc3cnccn23)cn1` are -2% and 0.39.
The like results for `CCc1nccn1CCC(=O)N[C@@H](CC)c1cccc(C)n1` were, in that order, -8% and 0.95.
The like results for `O=C(O)C1CC1C(=O)NC1CCCCCCC1` (stereo not given) were, in that order, -2% and 0.23.
Turning to `CCCCC(=O)NCc1ccc(C(N)=O)o1`, the “% Inhibition” value was 9% and the Z score was -1.27.
The like results for `O=C(N[C@H]1CC(=O)N(CC2CCCCC2)C1)C(=O)c1ccccc1` were, in that order, -2% and 0.28.
As to `NC(=O)c1ccsc1NC(=O)Cc1cccs1`, the “% Inhibition” value is on record as -5% and the Z score was determined as 0.68.
On the same counts, the results for `Cc1cc(-c2nc([C@H]3CCOC3)nn2C(C)C)cc(=O)[nH]1` are -14% and 1.97.
The like results for `O=C(N1CCC(Cc2ccccc2)CC1)N1CC(=O)N(C2CC2)C1` were, in that order, 8% and -1.01.
On the same counts, the results for `COCCC1(CNC(=O)Nc2ccccc2N2CCCC2)CCC1` are -1% and 0.2.
Consider `Cc1cccc(N2C(=O)c3cc(Br)ccc3N[C@@H]2c2ccc(N(C)C)cc2)c1`, for which the “% Inhibition” value was 37% and the Z score is -5.31.
The like results for `COCCN(Cc1ccc(OC)c(F)c1)Cc1ccc(C)s1` were, in that order, -2% and 0.29.
The like results for `Cc1ccoc1C(=O)Nc1ccc2c(c1)CCN2C(=O)c1ccoc1` were, in that order, -16% and 2.09.
Consider `COC[C@H]1[C@@H](NS(=O)(=O)c2ccc(OC)c(OC)c2)[C@H]2CCO[C@H]21`, for which the “% Inhibition” value was -7% and the Z score came out at 1.48.
On the same counts, the results for `Cc1n[nH]c(C)c1-c1ccc2c(c1)OCCC2=O` are 4% and -0.65.
With `O=C(NC1CCOCC1)c1coc(CN2CCN(Cc3ccccc3)CC2)n1`, the “% Inhibition” value is on record as -5% and the Z score is given as 0.84.
On the same counts, the results for `CN1CCN(S(=O)(=O)N2CCCCCC2)C[C@@H]1CCO` are -19% and 2.07.
On to `CC(NC(=O)c1ccoc1)C(=O)N1CC2OCCN(Cc3ccccc3)C2C1` (stereo not given), for which the “% Inhibition” value is given as -5% and the Z score is on record as 0.6.
On the same counts, the results for `CCNc1nc(C)c(C(=O)N2CC[C@@H]3OCc4cnnn4[C@H]3C2)s1` are -7% and 1.3.
On the same counts, the results for `O=C(Cc1csc2ccccc12)N1CCN(C(=O)Nc2ccccc2C(F)(F)F)CC1` are -5% and 0.94.
Regarding `CN(CCN(C)C1CC1)C(=O)[C@H]1CCN(c2ccccc2)C1`, the “% Inhibition” value is recorded as -8% and the Z score is 0.89.
Turning to `CNc1ccnc(N2CCC(C(=O)O)(n3ccc(C(C)C)n3)CC2)n1`, the “% Inhibition” value is reported as -1% and the Z score was 0.2.
The like results for `Cc1ccc(N2C[C@@H](C(=O)Nc3cnoc3)CC2=O)cc1` were, in that order, -3% and 0.45.
The like results for `CCc1nnc(NC(=O)c2nc[nH]n2)s1` were, in that order, -4% and 0.74.
The like results for `O=C(c1c[nH]c2ccccc12)N(CCN1CCOCC1)C1CCOCC1` were, in that order, -9% and 1.52.
For `O=C1CC[C@H](CCC(=O)NC2(c3c(F)cccc3F)COC2)N1`, the “% Inhibition” value was -10% and the Z score worked out at 1.06.
On the same counts, the results for `O=C(C1CCCC1)N1CCN(Cc2nc(-c3ccsc3)no2)CC1` are 3% and -0.52.
Regarding `Cc1ccc(NC(=O)Cn2nc3c(Oc4ccccc4)nc4ccccc4n3c2=O)cc1C`, the “% Inhibition” value was found to be 1% and the Z score is -0.12.
Regarding `C[C@@H](O)CNC(=O)c1cc(CN(C)CCc2ccccc2)on1`, the “% Inhibition” value is reported as -25% and the Z score was determined as 3.2.
On the same counts, the results for `N#Cc1cnn(-c2ccc(NC(=O)NC3CCCCC3)cc2)c1N` are 10% and -1.22.
With `CCCc1cncnc1N1CCN(C)[C@]2(CCC(=O)N(CC3CC3)CC2)C1`, the “% Inhibition” value was -1% and the Z score came to 0.2.
As to `COc1c(F)ccc(CN(Cc2cccnc2)C[C@@H]2CCC(=O)N2)c1F`, the “% Inhibition” value came out at 4% and the Z score is given as -0.72.
On to `Cn1cc(CCS(=O)(=O)Cc2ccc(F)c(Cl)c2)nn1`, for which the “% Inhibition” value is recorded as 4% and the Z score is -0.73.
On the same counts, the results for `Cc1nc(CC(=O)N[C@H]2CCCc3occc32)cs1` are 6% and -0.76.
Consider `CCc1noc(C)c1C(=O)O[C@@H](C)c1cccnc1`, for which the “% Inhibition” value is recorded as -2% and the Z score was 0.17.
Turning to `CCC(C)C(C)NC(=O)NCC(O)c1cccs1` (stereo not given), the “% Inhibition” value is on record as -7% and the Z score was found to be 1.
As for `CC(=O)c1c(C)nn([C@@H](C)CC(=O)N(C)Cc2cc(C3CC3)on2)c1C`, the “% Inhibition” value is on record as -20% and the Z score came to 2.15.
`CCS(=O)(=O)NCCCN1CCN(C2CC2)c2cc(Cl)ccc21`: the “% Inhibition” value is given as -4% and the Z score came to 0.36.
In the case of `CCc1ccc(-c2nc(C)c(C(=O)N3CC[C@H](C(=O)O)C3)s2)cc1`, the “% Inhibition” value is -11% and the Z score turned out to be 1.57.
As to `COCCCOC1CN(C(=O)c2cnn(C)c2)C1`, the “% Inhibition” value is given as -4% and the Z score came out at 0.56.
Regarding `CC1CCN(c2nc(-c3ccc(Cl)cc3)cc(C(F)(F)F)n2)CC1`, the “% Inhibition” value is listed as -2% and the Z score was 0.25.
On to `CCC(C)(C)NC(=O)c1ccc(Oc2ncc(-c3ccc(C)cc3)cn2)cc1`, for which the “% Inhibition” value turned out to be 0% and the Z score is listed as -0.02.
Regarding `CCOc1cc(CNC(=O)C2CCN(c3nc4ccccc4n(CC)c3=O)CC2)ccc1OC`, the “% Inhibition” value is -10% and the Z score was determined as 1.71.
On the same counts, the results for `CCN(C(=O)c1cccc(F)c1F)[C@H]1CCN(c2ncccc2C#N)C[C@@H]1O` are -5% and 0.95.
In the case of `COc1ccc([C@@H](CC(=O)NCc2ccc(F)cc2)c2c[nH]c3ccccc23)c(OC)c1`, the “% Inhibition” value is 3% and the Z score is recorded as -0.42.
The like results for `CC(C)c1cnc(-c2ccc(NC(=O)N3CCC(C)C3CO)cc2)o1` (stereo not given) were, in that order, -9% and 0.91.
The like results for `Cc1noc(C)c1CN(C)S(=O)(=O)c1ccc(C#N)cc1` were, in that order, -12% and 1.
Turning to `CN(C(=O)c1cc(F)cc(Br)c1F)[C@H]1C[C@@H](C(N)=O)C1`, the “% Inhibition” value is -6% and the Z score amounted to 1.2.
The like results for `C[C@@H](Cn1cc(Br)cn1)Nc1cnn(C(C)(C)C)c1` were, in that order, -9% and 1.4.
For the compound `CC1CC(C)N(C(=O)CC(N)=O)CC1CNC(=O)OC(C)(C)C` (stereo not given), the “% Inhibition” value was 2% and the Z score is -0.39.
On the same counts, the results for `C[C@@H](CC(C)(C)C)NC(=O)N1CC(=O)N(C2CC2)C1` are -3% and 0.52.
For `COCCc1noc(-c2cc(CC(C)C)nn2C)n1`, the “% Inhibition” value was 0% and the Z score was determined as 0.06.
Consider `Cc1cc(C(=O)NS(=O)(=O)CCC2CCCCC2)ns1`, for which the “% Inhibition” value was -11% and the Z score turned out to be 0.91.
`CC(C1CC1)N(C)C(=O)C1CC(=O)N(C2CCCC2)C1` (stereo not given): the “% Inhibition” value is reported as -2% and the Z score stood at 0.31.
For the compound `Cc1noc(COC(=O)c2cccc(Oc3ccccc3)c2)n1`, the “% Inhibition” value is reported as -2% and the Z score is given as 0.25.
Consider `CCc1ncsc1NC(=O)c1nc(C)ncc1Cl`, for which the “% Inhibition” value was found to be 4% and the Z score is listed as -0.8.
On the same counts, the results for `CC(C)[C@@H](C#N)NC(=O)[C@H]1Cc2ccccc2O[C@@H]1C(F)(F)F` are -2% and 0.33.
Consider `CCc1nccn1CCN1CC[C@H](n2nc(C)cc2C)C1`, for which the “% Inhibition” value is given as -6% and the Z score was determined as 0.88.
The like results for `Cc1noc([C@]23CN(Cc4cccnc4)CC[C@H]2CN(C(=O)c2cccnc2)C3)n1` were, in that order, -3% and 0.5.
The like results for `[O-][S+]1CCN(c2ncnc3scc(-c4ccccc4)c23)CC1` were, in that order, -7% and 0.93.
On the same counts, the results for `O=C1CCN(C(=O)Cn2cc(C3CC3)cn2)[C@H]2CCCN12` are 0% and -0.06.
With `COc1cnc(NC(=O)N2CC=C(C(F)(F)F)CC2)s1`, the “% Inhibition” value is recorded as -5% and the Z score was 0.91.
`O=C(N[C@@H](Cc1ccccc1)c1ccccc1)c1cc2n(n1)CCN(Cc1ccc(F)cc1)C2=O`: the “% Inhibition” value was -3% and the Z score was 0.35.
The like results for `O=C(Nc1c(F)cccc1OCc1ccccc1)N[C@H]1CCOC1` were, in that order, 33% and -3.73.
The like results for `CC[C@@H](c1ccc(F)cc1)N1CC[S+]([O-])CC1` were, in that order, -3% and 0.54.
With `O=C(CCC(=O)N1CCC[C@H]1c1cccc(Br)c1)c1ccccc1`, the “% Inhibition” value is 16% and the Z score was -2.03.
The like results for `CC(C)c1nn(C)cc1NC(=O)NCCF` were, in that order, 4% and -0.66.
Regarding `OCCNc1ncncc1-c1nc(C2CCCCC2)no1`, the “% Inhibition” value was -14% and the Z score is recorded as 1.59.
On to `O=C(NCCN1CCCCC1)c1csc(CN(CCC(c2ccccc2)c2ccccc2)Cc2ccc(F)cc2)n1`, for which the “% Inhibition” value is recorded as -5% and the Z score is given as 0.7.
The like results for `CCC(CO)NC(=O)c1nc2ccc(NC(CC)CO)nc2s1` (stereo not given) were, in that order, -13% and 2.33.
On to `Cc1cc(C(=O)N2CCC[C@H](c3nccn3CC(N)=O)C2)c2ccccc2n1`, for which the “% Inhibition” value is on record as -6% and the Z score stood at 0.79.
On the same counts, the results for `CN1CCCN(C(=O)C2CCCCC2)c2nc3ccccc3nc21` are -5% and 0.93.
The like results for `COc1ccc(NC(=O)[C@H]2C[C@H](Cc3ccc(O)cc3)N[C@]23C(=O)Nc2c3ccc(C)c2C)cc1` were, in that order, -2% and 0.21.
On the same counts, the results for `COc1cc(-c2ccccc2)ccc1CNC[C@]1(O)CCOC1` are -3% and 0.36.
As for `Cc1cc(C(=O)NC(C)C)ccc1NCCCC(C)(C)C#N`, the “% Inhibition” value came out at 1% and the Z score is given as -0.18.
On the same counts, the results for `O=C(c1ccncc1)N1C[C@H]2CC[C@@H](C1)N(Cc1ccc3occc3c1)C2` are -11% and 2.03.
For the compound `CC(OCC1CCCCO1)c1nc(-c2cccc(-n3cccn3)n2)no1` (stereo not given), the “% Inhibition” value was -8% and the Z score is 1.18.
The like results for `Cc1ocnc1C(=O)N1CCC2(CCC(=O)N(CCc3c[nH]cn3)C2)CC1` were, in that order, -10% and 1.23.
